For two molecules, binding results are on record in article PMC8970588.

The chains behind the UniProt entries cited, without tags or fusion partners. Where a name states a change or a piece, a line headed by the entry shows the natural chain unless it says otherwise. Residues count along the entry.
UniProt P14126: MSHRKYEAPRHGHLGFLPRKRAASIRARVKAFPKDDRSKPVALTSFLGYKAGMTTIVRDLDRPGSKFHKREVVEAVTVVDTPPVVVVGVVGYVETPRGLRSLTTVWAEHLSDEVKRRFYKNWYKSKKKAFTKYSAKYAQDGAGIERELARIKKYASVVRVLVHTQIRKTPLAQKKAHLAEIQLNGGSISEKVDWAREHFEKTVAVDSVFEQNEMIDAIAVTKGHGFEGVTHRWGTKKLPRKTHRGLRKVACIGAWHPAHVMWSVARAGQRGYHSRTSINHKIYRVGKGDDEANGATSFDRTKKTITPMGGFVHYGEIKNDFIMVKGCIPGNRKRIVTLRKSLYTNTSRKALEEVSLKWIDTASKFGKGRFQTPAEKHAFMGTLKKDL
Rpl3.N52 (first 52 amino acids of Rpl3), yeast two-hybrid fusion: residues 1-52 of P14126
Rpl3.8C (Rpl3 lacking the first seven residues), yeast two-hybrid fusion: residues 8-387 of P14126

Results are given in words; binding and its absence hold for the method and conditions named. Some entries that bind do so weakly or less than the wild type. Where a sequence is shown, tags or fusion partners need not be part of it.

Common to all, as to experiment: two-hybrid; reporter strain PJ69-4A; bait fused to Gal4 DNA-binding domain, prey fused to Gal4 activation domain; growth on SC-Leu-Trp-His (HIS3) and SC-Leu-Trp-Ade (ADE2) plates, 3 days at 30°C
The target in assay [1] is T1, full-length Btt1, yeast two-hybrid fusion (S. cerevisiae) (UniProt P40314).
T1 sequence: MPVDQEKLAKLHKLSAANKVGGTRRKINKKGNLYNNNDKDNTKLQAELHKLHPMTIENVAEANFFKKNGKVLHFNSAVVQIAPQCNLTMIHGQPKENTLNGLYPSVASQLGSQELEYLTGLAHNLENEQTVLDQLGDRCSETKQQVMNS

Assay [2] concerns the target T2, full-length Egd2, yeast two-hybrid fusion (S. cerevisiae) (UniProt P38879).
T2 sequence: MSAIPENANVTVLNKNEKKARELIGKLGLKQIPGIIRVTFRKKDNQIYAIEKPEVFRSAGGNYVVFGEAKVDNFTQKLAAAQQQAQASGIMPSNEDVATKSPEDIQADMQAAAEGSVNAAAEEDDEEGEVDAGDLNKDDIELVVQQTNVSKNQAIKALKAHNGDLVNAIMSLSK

Assay [3] addresses T3, full-length Egd1, yeast two-hybrid fusion (S. cerevisiae) (UniProt Q02642).
T3 sequence: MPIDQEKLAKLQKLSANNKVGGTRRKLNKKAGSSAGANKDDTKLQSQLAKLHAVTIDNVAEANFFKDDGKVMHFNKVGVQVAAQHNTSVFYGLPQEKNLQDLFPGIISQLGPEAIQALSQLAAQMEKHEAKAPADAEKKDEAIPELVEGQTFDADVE

Assay [4] has as its target Rpl3.R10A/H11A (full-length), yeast two-hybrid fusion (S. cerevisiae) (UniProt P14126).
Assay [5] addresses Rpl3.N52 F46A/L47A, yeast two-hybrid fusion (S. cerevisiae) (UniProt P14126).
Assay [6] has as its target Rpl3.R10E/H11E (full-length), yeast two-hybrid fusion (S. cerevisiae) (UniProt P14126).
Assay [7] has as its target Rpl3.N52 R10A/H11A, yeast two-hybrid fusion (S. cerevisiae) (UniProt P14126).
In assay [8] the target is Rpl3.N52 (first 52 amino acids of Rpl3), yeast two-hybrid fusion (S. cerevisiae) (UniProt P14126).
For assay [9], the target named is Rpl3.N52 H3E, yeast two-hybrid fusion (S. cerevisiae) (UniProt P14126).
Assay [10] deals with Rpl3.F46A/L47A (full-length), yeast two-hybrid fusion (S. cerevisiae) (UniProt P14126).
Assay [11] deals with Rpl3.N52 R10E/H11E, yeast two-hybrid fusion (S. cerevisiae) (UniProt P14126).
Assay [12] deals with Rpl3.8C (Rpl3 lacking the first seven residues), yeast two-hybrid fusion (S. cerevisiae) (UniProt P14126).
Assay [13] deals with Rpl3.N52 K5E, yeast two-hybrid fusion (S. cerevisiae) (UniProt P14126).
The target of assay [14] is Rpl3.F16A/L17A (full-length), yeast two-hybrid fusion (S. cerevisiae) (UniProt P14126).
In assay [15] the target is Rpl3.H3E (full-length), yeast two-hybrid fusion (S. cerevisiae) (UniProt P14126).
Assay [16] deals with Rpl3.N52 H13A/L14A, yeast two-hybrid fusion (S. cerevisiae) (UniProt P14126).
The target in assay [17] is Rpl3.Y6E (full-length), yeast two-hybrid fusion (S. cerevisiae) (UniProt P14126).
Assay [18] addresses Rpl3.H13A/L14A (full-length), yeast two-hybrid fusion (S. cerevisiae) (UniProt P14126).
The target in assay [19] is Rpl3.N52 Y6E, yeast two-hybrid fusion (S. cerevisiae) (UniProt P14126).
Assay [20] concerns the target Rpl3.K5E (full-length), yeast two-hybrid fusion (S. cerevisiae) (UniProt P14126).
Assay [21] addresses full-length Rpl3, yeast two-hybrid fusion (S. cerevisiae) (UniProt P14126).

B1: full-length Cal4, yeast two-hybrid fusion (protein, UniProt P47086 1-261)
chain: MSETRESNESTVSSLQTKLLLNDGISENNKKNVILLNQIVPFILNTSHYMTDLMYVLYYLAQKQEDEVLNHSGTFISHKKELLALKSDICELIYDLRTGFRLLLDSCELDHFETPGKCRHLIEKVLVTSIYGVNRYIFQELNRLNVDFKDEFILQMQNCLSGFVNLYKFLNKIPMSKQQSQMNDLQMKILVNVLQNELLPIWKFQLDLLNCKLFNELSKDKGLINIYRKATNDSVIDVSKGEPFIRYVNWLKDQIIGEMTV
On to B1, for which the binding entry in assay [1], in [2] and in [3] was “no binding” in each case.

B2: full-length Rrb1, yeast two-hybrid fusion (protein, UniProt Q04225 1-511)
chain: MSKRSIEVNEEQDRVVSAKTESHSVPAIPASEEQDAPKNDLEEQLSDEFDSDGEIIEIDGDDEINDEDDLRKKQEEAETLVQKDQSEGNKEKIQELYLPHMSRPLGPDEVLEADPTVYEMLHNVNMPWPCLTLDVIPDTLGSERRNYPQSILLTTATQSSRKKENELMVLALSNLAKTLLKDDNEGEDDEEDDEDDVDPVIENENIPLRDTTNRLKVSPFAISNQEVLTATMSENGDVYIYNLAPQSKAFSTPGYQIPKSAKRPIHTVKNHGNVEGYGLDWSPLIKTGALLSGDCSGQIYFTQRHTSRWVTDKQPFTVSNNKSIEDIQWSRTESTVFATAGCDGYIRIWDTRSKKHKPAISVKASNTDVNVISWSDKIGYLLASGDDNGTWGVWDLRQFTPSNADAVQPVAQYDFHKGAITSIAFNPLDESIVAVGSEDNTVTLWDLSVEADDEEIKQQAAETKELQEIPPQLLFVHWQKEVKDVKWHKQIPGCLVSTGTDGLNVWKTISV
Turning to B2, the binding entry in assay [4] is given as “binds”; in [5] it was “binds”; in assay [6] it was “binds”; in assay [7], “binds”; in assay [8], “binds”; in assay [9], “no binding”. Moreover, the binding result in assay [10] is on record as “no binding”; in [11], “binds”; in assay [12], “no binding”; in assay [13], “no binding”; in assay [14], “binds”; in [15], “no binding”. Besides, the binding result in assay [16] is “binds”; in assay [17], “no binding”; in [18] it was “binds”; in [19] it was “no binding”; in assay [20] it was “no binding”; in assay [21], “binds”.
